In article doi:10.1101/2021.10.11.463904 (bioRxiv, 2021):

Biological target: the molecule itself
Assay: dynamic light scattering

B1: proIGF2 (natural protein)
chain: not shown
B1: binds.
